Screen size: about 310,000 compounds; about 14,000 (4.5%) showed an effect of 50% or more. The effect is printed as a negative number. The list shows a part of the results. Where a SMILES comes first, the peptide text is derived from it. The star is where a group is joined. Boc = CC(C)(C)OC(=O)*
What follows are compounds tested against human ether-à-go-go-related gene (hERG) potassium channel (human, UniProt Q12809) (assay: primary screen, population patch clamp on CHO cells stably expressing hERG).
Chain of human ether-à-go-go-related gene (hERG) potassium channel (Q12809 whole entry, looked up): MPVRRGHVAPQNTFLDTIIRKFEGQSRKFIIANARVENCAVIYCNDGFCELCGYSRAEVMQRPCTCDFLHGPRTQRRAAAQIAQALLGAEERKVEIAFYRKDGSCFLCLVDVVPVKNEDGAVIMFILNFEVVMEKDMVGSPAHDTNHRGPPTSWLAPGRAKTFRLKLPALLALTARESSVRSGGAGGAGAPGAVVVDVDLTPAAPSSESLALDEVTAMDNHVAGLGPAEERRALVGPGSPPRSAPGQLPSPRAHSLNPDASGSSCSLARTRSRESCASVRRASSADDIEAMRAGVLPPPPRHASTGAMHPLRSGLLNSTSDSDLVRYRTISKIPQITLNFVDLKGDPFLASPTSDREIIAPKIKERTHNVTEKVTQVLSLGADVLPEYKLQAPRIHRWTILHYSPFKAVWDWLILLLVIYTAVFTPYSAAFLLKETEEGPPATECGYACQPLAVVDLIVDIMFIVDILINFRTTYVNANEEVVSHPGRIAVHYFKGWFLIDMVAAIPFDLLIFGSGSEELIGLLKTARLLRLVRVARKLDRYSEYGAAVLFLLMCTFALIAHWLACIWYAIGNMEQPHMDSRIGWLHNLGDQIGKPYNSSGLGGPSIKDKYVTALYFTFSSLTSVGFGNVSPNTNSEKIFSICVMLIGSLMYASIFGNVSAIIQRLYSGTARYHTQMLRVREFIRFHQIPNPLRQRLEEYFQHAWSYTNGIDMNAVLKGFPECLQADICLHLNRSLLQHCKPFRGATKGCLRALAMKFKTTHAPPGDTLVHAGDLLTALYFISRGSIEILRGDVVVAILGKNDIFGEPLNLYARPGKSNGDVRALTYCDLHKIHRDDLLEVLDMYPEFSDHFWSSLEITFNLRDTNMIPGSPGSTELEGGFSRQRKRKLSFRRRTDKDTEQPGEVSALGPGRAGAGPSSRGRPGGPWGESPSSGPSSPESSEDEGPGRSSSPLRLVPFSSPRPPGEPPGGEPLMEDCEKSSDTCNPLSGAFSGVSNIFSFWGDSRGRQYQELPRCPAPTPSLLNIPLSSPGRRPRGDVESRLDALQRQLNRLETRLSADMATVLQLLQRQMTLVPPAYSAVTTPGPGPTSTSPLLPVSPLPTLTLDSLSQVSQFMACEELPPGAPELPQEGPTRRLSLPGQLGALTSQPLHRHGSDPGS
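Note: peak tail current of the secondary pulse compared with the same well before compound.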

Point of comparison: COc1ccccc1C1C(C(N)=O)=C(C)Nc2ncnn21 (stereo not drawn), “hERG current change (%, negative = inhibition) at 10uM” value -9.08%. Against it:
- CCCCn1c(N)c(N(CC(C)C)C(=O)C2CCN(S(=O)(=O)c3ccc(Cl)cc3)CC2)c(=O)[nH]c1=O — higher, 8.91%
- COc1cc2cc(C(=O)N(C)C3CCS(=O)(=O)C3)[nH]c2cc1OC (stereo not drawn) — higher, 14.4%
- COc1ccc(C2=NNC(=Nc3cc(S(=O)(=O)N(C)C)ccc3C)SC2)c(OC)c1 — higher, 2.69%
- O=C(CSc1nc2ccccc2[nH]1)Nc1ccc(F)cc1 — lower, -12.6%
- CCN(CC)CCCNC(=S)N(Cc1ccco1)Cc1cc2cc3c(cc2[nH]c1=O)OCCO3 — higher, -5.93%
- Cc1csc(NC(=O)c2ccc(C)c(S(=O)(=O)N3CCCCC3)c2)n1 — lower, -14.3%
- Cl.OC1(c2ccccc2)CCN(Cc2ccccc2)C2CCCCC21 (stereo not drawn) — lower, -15.6%
- Cc1cc(NNC(=O)c2ccccc2)nc(NNC(=O)c2ccccc2)n1 — higher, 15.8%
- Cc1[nH]c(-c2ccc(F)cc2)cc1C(=O)N1CCN(c2cccc(Cl)c2)CC1 — lower, -12%
- CC(C)C(=O)Nc1cc(C(F)(F)F)ccc1-n1ccnc1 — higher, 3.41%
- Cc1nonc1C(=O)N/N=C/c1cccc(O)c1 — higher, -5.79%
- COc1cc(NC(=O)c2c(Cl)cnn2C)c(OC)cc1Cl — higher, 15.3%
- COC(=O)C1=C(c2c(C)noc2C)C[C@@H]2CC[C@H]1N2C(=O)NCc1ccco1 — higher, 19%
- Cc1cccc(C(=O)OC(C)C(=O)NCC2CCCCC2)c1O (stereo not drawn) — higher, 1.32%
- Cc1cccc(C)c1NC1=NCCCS1 — lower, -10.6%
- Cc1ccccc1NC(=O)Cc1nnc(N)s1 — higher, 11.3%
- Cc1ccc(-c2nc3cnccn3c2Nc2ccc3c(c2)OCO3)cc1 — lower, -25.7%
- COc1ccc(-c2nnn(CC(=O)NC(=O)NC3CCCCC3)n2)cc1OC — higher, 12.4%
- CCCC(=O)N1CCN(c2ccc(NC(=S)NC(=O)CC)cc2)CC1 — higher, -3.02%
- CC(NC(=O)OC(C)(C)C)C(=O)N1CCCC1C(=O)NC(Cc1ccccc1)C(N)=O (stereo not drawn) (Boc-Ala-Pro-Phe-NH2; configuration not given here) — higher, -1.92%
- O=C1NN(c2ccccc2)C(=O)/C1=C/c1coc2ccccc2c1=O — higher, 9.91%
- COc1ccc(CCNC(=O)c2cc(=O)c3cc(C)ccc3o2)cc1 — lower, -9.11%
- O=[N+]([O-])c1ccc(OCc2cccc(COc3ccc([N+](=O)[O-])cc3)n2)cc1 — higher, 11.7%
- Clc1ccc(NC2=NCCCCC2)cc1 — higher, -3.09%
- Cc1nc2ccc(NC(=O)N3CCOCC3)cc2nc1C — higher, 33.8%
- Cc1ccc(NC(=O)COc2ccc(C(=O)c3ccccc3)cc2)c(O)c1 — higher, 10.2%
- COCc1cc(C)nc(SCC(=O)c2ccc(O)c(O)c2)c1C#N — higher, 6.86%
- Nc1nc2nc(-c3ccc(OCc4ccccc4)cc3)cc(C(F)(F)F)n2n1 — higher, 4.07%
- O=C(c1ccc(S(=O)(=O)N2CCOCC2)cc1)N1CCN(c2ccc(F)cc2)CC1 — higher, -5.3%
- COC(=O)c1ccccc1NC(=O)CSc1nc(N)cc(=O)[nH]1 — higher, 36.6%
- CCOC(=O)CNC(=O)Cn1cnc2c(nnn2-c2ccc(C)cc2)c1=O — higher, 3.96%
- Cc1ccc(CNC(=O)CSc2nnc3c(n2)[nH]c2ccccc23)cc1 — higher, 19.6%
- CCOC(=O)c1cc(-c2ccc(C)cc2)n(CCC(=O)NCCCOC)c1C — lower, -11.5%
- COc1cc(C(=O)Nc2cc(C)nn2-c2ccccc2)cc(OC)c1OC — higher, 7.53%
- Cc1ccnc(NC(=O)c2ccc3c(c2)NC(=O)C(C)S3)c1 (stereo not drawn) — higher, -1.36%
- O=C(NCCN1C(=O)S/C(=C\c2cccnc2)C1=O)C1=NN(c2ccccc2)C(=O)CC1 — higher, -6.3%
- CCCc1nc2ccccc2n1CCc1ccccc1 — higher, -7.44%
- C/C(Cn1nnc2ccccc21)=N\OC(=O)c1ccccc1C — lower, -63.9%
- Cc1ccc(S(=O)(=O)c2c[nH]c3ccc(Cl)cc3c2=O)cc1 — higher, 9.98%
- O=C(Nc1ccc2ccccc2c1)[C@@H]1C[C@H]1[C@@H](NP(=O)(c1ccccc1)c1ccccc1)c1ccccc1 — higher, 32.1%
- O=C(CSc1cccc2cccnc12)Nc1ccccc1F — higher, -2.94%
- CSCCC(C(=O)O)N1C(=O)c2ccc(C(=O)O)cc2C1=O (stereo not drawn) — higher, 14.2%
- CC(=O)N1CCCc2cc(S(=O)(=O)NCCC3=CCCCC3)ccc21 — lower, -15.9%
- O=C(NCc1ccccc1Br)c1ccc2c(c1)OCCO2 — higher, 5.54%
- Cc1ccc(S(=O)(=O)NNC(=O)c2cnn(-c3ccc(Cl)cc3)c2C(F)(F)F)cc1 — higher, 12.7%
- Cc1cc2c(NC(=O)CC(C)(C)CC(=O)O)cccc2nn1 — higher, 6.54%
- O=C(NCCc1c[nH]c2ccccc12)C(=O)Nc1cc2c3c(c1)CC(=O)N3CCC2 — higher, 1.46%
- COc1ccc(CCNC(=O)C(=O)Nc2ccc3nc4n(c(=O)c3c2)CCCCC4)cc1OC — lower, -27.3%
- O=C1CC(SC(=Nc2ccccc2)Nc2ccccc2)C(=O)N1c1ccc(Cl)c(Cl)c1 (stereo not drawn) — higher, 9.05%
- O=C(O)/C=C/C(=O)Nc1ccc(O)cc1 — higher, 11.7%
- CCCS(=O)(=O)N1CCC(C(=O)NCCCN2CCCC2=O)CC1 — higher, 13%
- CC(=O)NC1C(OCc2ccccc2)OC(CO)C(OC(C)=O)C1OC(C)=O (stereo not drawn) — lower, -16.9%
- CC(NS(=O)(=O)c1ccccc1)C1COc2ccccc2O1 (stereo not drawn) — higher, -4.88%
- Cc1cccc(N=Cc2[nH]c3ccc(Br)c(Cl)c3c2O)c1 — higher, 20.6%
- CC(C)O.CN1CCc2c(c3c(n2C)CCN(C)[C@@H]3c2cccnc2)[C@H]1c1cccnc1.Cl — higher, -7.28%
- O=C(NC(=S)NCCN1CCOCC1)c1ccccc1Cl — higher, 1.69%
- CC12CCC(C/C1=N/NC(=O)Nc1ccccc1)C2(C)C (stereo not drawn) — higher, 9.49%
- Cn1c2ccccc2c2ncn(CCCN3CCOCC3)c(=O)c21 — lower, -16.6%
- CCN(CC)C(=O)COc1ccc(-c2nnc(N3CCCCC3)c3ccccc23)cc1 — lower, -25.4%
- COc1ccc(C(=O)NCCSCc2ccccc2C)cc1 — lower, -39.3%
- COc1cccc(CNC(=O)CCC2CCCN(C/C=C/c3ccccc3OC)C2)c1 (stereo not drawn) — lower, -68.5%
- CCCCC(O)(CCCC)C(=O)NN(C(=O)CCl)c1ccccc1 — higher, 14.9%
- Cc1ccccc1N1CCN(S(=O)(=O)c2ccccc2)CC1 — higher, 0.732%
- CCC(C)(C)NC(=O)C(c1ccc(OC)cc1)N(C(=O)CCC(=O)Nc1cc(C)on1)c1ccc2c(c1)OCCO2 (stereo not drawn) — higher, 11.1%
- C#CC[N+](C)(C)CC#Cc1ccccc1.[Br-] — higher, 13.3%
- O=c1oc2ccc3ccccc3c2cc1-c1nc2ccccc2o1 — higher, 14%
- O=C(Nc1ccccc1)N1CCn2c1nc1ccccc12 — higher, 4.15%
- COC(=O)N/N=C/c1cn(CCCOc2ccccc2)c2ccccc12 — higher, -4.14%
- Cc1cccc(C)c1NC(=O)C(c1cccc([N+](=O)[O-])c1)N(C)C(=O)c1ccccn1 (stereo not drawn) — lower, -22.5%
- O=C(Cn1nnc2ccccc2c1=O)Nc1cc(C(F)(F)F)ccc1N1CCOCC1 — lower, -14.5%
- C/C(CC(=O)Nc1ccc(Cl)c(C(F)(F)F)c1)=N\NC(=O)c1cccc(O)c1 — lower, -24%
- CCOC(=O)C1=NNC(C(=O)c2ccccc2)C1c1ccc(OC)cc1 (stereo not drawn) — higher, -5.14%
- O=[N+]([O-])c1ccc(N2CCCCC2)c2ncccc12 — lower, -23.7%
- Cc1[nH]c2ccccc2c1NC(=O)CN1CCN(C(=O)c2ccco2)CC1 — higher, -1.34%
- O=C(Nc1ccc(N2CCCC2)cc1)c1ccc2ccccc2c1 — higher, 0.743%
- Cc1ccc(N2C(=O)c3cccc4c([N+](=O)[O-])ccc(c34)C2=O)c2cccnc12 — higher, 2.27%
- O=C(c1ccc([N+](=O)[O-])cc1)N1CCN(C(=O)c2cccs2)CC1 — lower, -70.3%
- COc1cccc(OC(=O)c2cc3ccccc3oc2=O)c1 — higher, -1.21%
- CCC1CCCCN1S(=O)(=O)c1ccc(NC(=O)CSc2ncccc2C(=O)O)cc1 (stereo not drawn) — higher, -6.73%
- CCCSc1nnc(NC(=O)Nc2ccc(F)cc2)s1 — higher, 5.54%
- O=C(NC1CCCC1)C1CC(=O)N(c2ccc(F)cc2)C1 (stereo not drawn) — higher, 22.7%
- CC(=O)NC(CC(=O)NC1CCCCC1)c1ccccc1 (stereo not drawn) — higher, -2.93%
- COCCCNC(=O)c1ccccc1NS(C)(=O)=O — higher, 4.15%
- COCCOC(=O)C1=C(C)NC(=O)NC1C1CC=CCC1 (stereo not drawn) — higher, 0.101%
- Cn1c(=O)c2c(-c3ccccc3)n(N3CCOCC3)cc2n(C)c1=O — lower, -19.9%
- NC(=O)c1nsc(C(=O)N(Cc2ccco2)C(C(=O)NCc2ccccc2)c2ccc(O)cc2)c1N (stereo not drawn) — lower, -34.5%

From paper PMC4336329 (PLoS ONE, 2015)
